Assay results taken from PubChem BioAssay AID1159614 (National Center for Advancing Translational Sciences (NCATS), 2016).
Screen size: about 45,000 compounds; about 65 (0.1%) were called active. Calls come from the whole dose curve; as a rule, active = well fitted activation curve with a large enough effect; inconclusive = small, poorly fitted or top-dose-only effect; inactive = no such curve, though single readings can be large or run the other way. This is one part of the list.

The compounds below were run against Galactocerebrosidase (Homo sapiens) (UniProt P54803) (assay: A Novel Cell-Based Assay to Identify Small Molecules for B -Galactocerebrosidase). Conditions: 145M-Twi-hGALC-G270D cells, HMU-beta-Gal fluorescence, 48 h; series mostly up to 57.5 µM; activation: at the top concentration.
Summary of the method: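 qHTS, 1536-well; 145M-Twi-hGALC-G270D cells (WT line also made) in DMEM/F12 + 10% FBS; compound incubation on live cells; HMU-β-gal 0.1 mM final, pH 5.2, NaTC; carbonate stop; fluorescence increase = enhanced residual activity.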
Note: 0% is about no effect; nearly all actives have a fitted effect of over 65% in size.

UniProt P54803, sequence (P54803 whole entry, looked up): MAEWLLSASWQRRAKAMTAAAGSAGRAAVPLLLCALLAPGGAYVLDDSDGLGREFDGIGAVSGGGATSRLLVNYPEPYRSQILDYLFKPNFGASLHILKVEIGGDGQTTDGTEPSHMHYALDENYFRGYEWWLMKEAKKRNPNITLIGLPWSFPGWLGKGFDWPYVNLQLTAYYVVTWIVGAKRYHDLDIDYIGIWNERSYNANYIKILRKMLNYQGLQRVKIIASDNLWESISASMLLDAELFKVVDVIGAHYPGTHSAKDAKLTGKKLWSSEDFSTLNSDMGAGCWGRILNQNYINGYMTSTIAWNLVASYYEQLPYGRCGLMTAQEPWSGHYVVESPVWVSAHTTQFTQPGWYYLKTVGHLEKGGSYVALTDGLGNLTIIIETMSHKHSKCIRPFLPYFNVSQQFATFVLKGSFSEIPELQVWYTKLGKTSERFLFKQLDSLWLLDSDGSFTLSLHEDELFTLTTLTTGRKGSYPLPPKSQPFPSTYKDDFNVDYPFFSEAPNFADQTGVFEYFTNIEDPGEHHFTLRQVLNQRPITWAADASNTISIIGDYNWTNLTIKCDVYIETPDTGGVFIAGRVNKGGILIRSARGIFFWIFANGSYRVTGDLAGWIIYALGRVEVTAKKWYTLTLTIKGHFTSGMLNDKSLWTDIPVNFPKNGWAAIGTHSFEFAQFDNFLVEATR

activation, inactive:
O=C(CNS(=O)(=O)c1ccc(Br)s1)N1CCN(c2ccc(F)cc2)CC1 -12%
C[C@]12CCC(=O)C=C1CC[C@@H]1[C@@H]2CC[C@@]2(C)[C@H]1CC[C@]2(O)C(=O)CO -12.8%
CCS(=O)(=O)NCCc1sc2nc(-c3ccc(OC)cc3)nn2c1C -14.4%
Cc1ccc(NC(=O)N2CCN(C(=O)c3nsc4ccccc34)CC2)cc1C 5.89%
COCCNS(=O)(=O)c1cc(-c2nn3c(C)nnc3c3ccccc23)ccc1C -3.49%
Cc1cc(C)c2oc(C(=O)NCCc3ccc(S(N)(=O)=O)cc3)cc(=O)c2c1 -7.09%
CC(C)(C)c1ccc(C(=O)NC2=NC(c3cccc(F)c3)CC(=O)N2)cc1 (stereo unspecified) -9.51%
COC(=O)C1=C(C)NC(C)=C(C(=O)OC(C)(C)CN(C)CCC(c2ccccc2)c2ccccc2)C1c1cccc([N+](=O)[O-])c1 (stereo unspecified) -14.2%
O=C1CC(c2ccccc2)Cc2[nH]c(=O)c(-c3nc(-c4ccc(Cl)c(Cl)c4)cs3)cc21 (stereo unspecified) -9.85%
COc1ccc(Cl)cc1NC(=O)C(=O)NCc1ccc(Cl)cc1 -17.9%
Cc1ccc(OC(=O)CSc2nnc(-c3ccc4c(c3)OCO4)o2)c(C)c1 3.24%
CCOc1ccccc1NC(=O)N1CC(C)Oc2ccc(Cl)cc21 (stereo unspecified) 21.6%
CCOC(=O)c1cnc(NCc2ccc(OC)cc2OC)c2ccccc12 -2.74%
Cc1cccn2c(=O)cc(COc3ccc(NC(=O)COc4ccc(F)cc4)cc3)nc12 -9.78%
Cc1cccc(CCn2c(=O)c3ccccc3n(Cc3ccccc3C)c2=O)c1 -9.79%
COc1cccc(-c2nc3c(c(SCC(=O)Nc4cccc(C)c4C)n2)Cc2c(CO)cnc(C)c2O3)c1 1.17%
COc1cccc(NC(=O)CN2C=NS(=O)(=O)c3ccccc32)c1 -20%
Cc1ccc(C(=O)c2sc(Nc3ccc(F)cc3)c(C#N)c2N)cc1 -16.7%
O=C(O)CCc1ccc(-c2ccc(Br)cc2)n1-c1ccccc1O -19.6%
CCOC(=O)C1CCN(c2cc3c(cc2NC(=O)c2ccccc2Cl)n(C)c(=O)n3C)CC1 -13.4%
CNC(=O)C1CCCN(c2nnc(C)c3c(C)n(-c4ccccc4)nc23)C1 (stereo unspecified) -18.7%
CCOCCCNC(=O)c1ccc(-c2nc(CS(=O)(=O)c3ccccc3)c(C)o2)cc1 2.81%
COc1ccc(-c2nc3sc(CCNC(=O)C(C)(C)C)c(C)n3n2)cc1 -23.1%
Cc1cc2nc(-c3ccc(NC(=O)c4ccc(OCC(C)C)cc4)cc3)oc2cc1C -0.631%
O=C(Nc1ccc(F)c(Cl)c1)c1cc(S(=O)(=O)NCc2ccc3c(c2)OCO3)ccc1F -3.93%
CCOc1cccc2sc(N(Cc3cccnc3)C(C)=O)nc12 -4.39%
CCCCN(CC)CCNC(=O)Cn1cnc2sc(C)c(S(=O)(=O)N3CCN(c4ccccc4OC)CC3)c2c1=O -26.1%
CCOc1ccc2nc(N3CCCC(C(=O)NCCc4ccc(OC)cc4OC)C3)sc2c1 (stereo unspecified) -16.4%
CCOc1ccc(N2CC(c3nc4ccccc4n3CCOc3ccc(OC)cc3)CC2=O)cc1 (stereo unspecified) -20.2%
CC(C)Cc1nn2cc(-c3cccc(Br)c3)nc2s1 -5.37%
CC(NC(=O)CCc1cn(Cc2ccccc2Cl)c2ccccc12)c1ccccc1 (stereo unspecified) -3.61%
O=C(NCCc1ccccc1)c1ccc(CSc2nc3cccnc3n2Cc2ccccc2)cc1 -8.62%
COc1ccc(C(CC(=O)Nc2ccccn2)N2Cc3ccccc3C2=O)cc1OC (stereo unspecified) -2.28%
O=C(CCS(=O)(=O)c1ccccc1)N(Cc1cccnc1)c1nc2c(F)cccc2s1 -3.66%
CCOC(=O)c1nnc2c(-c3ccc(Cl)cc3)c(C)nn2c1N -13.6%
CCc1ccccc1NC(=O)Cn1nnc(C(=O)NCc2ccco2)c1N -4.85%
Cc1ccc(-c2nc(CS(=O)(=O)CC(=O)NC(C)CCc3ccccc3)c(C)o2)cc1 (stereo unspecified) -20.4%
COc1ccc(/C=C/c2nc(C#N)c(N3CCC(C(N)=O)CC3)o2)cc1OC 0.116%
O=C(NCCO)C(=O)NCC(c1ccc2c(c1)OCO2)N1CCOCC1 (stereo unspecified) -19.6%
CC(C)CN(c1ccccc1)S(=O)(=O)c1nnc(NC(=O)C2CCCCC2)s1 16.6%
CCOc1ccc(-c2cc3nc(C4CCN(C(=O)OC(C)(C)C)CC4)c(C(=O)Nc4cccc(C(F)(F)F)c4)cn3n2)cc1 -8.98%
Cc1nc2cccnc2n1-c1cccc(C(=O)NCc2cccc(Cl)c2)c1 -43.1%
c1ccc2c(c1)CCc1ccccc1N2 -9.47%
COc1ccc(Br)cc1CNCc1c(C(=O)O)c(C)n(Cc2ccccc2C)c1C -10%
COc1ccc(-c2nc3scc(CCNS(=O)(=O)c4cccs4)n3n2)cc1 -3.85%
Cc1ccc(-n2c(=O)c3c4c(sc3n(CC(=O)C(C)(C)C)c2=O)CCCCC4)cc1C -14%
COc1cccc(C(=O)NC2=NC(c3ccccc3F)CC(=O)N2)c1 (stereo unspecified) -7.6%
COc1cc(Cl)c(NS(=O)(=O)c2cc3[nH]c(=O)c(=O)[nH]c3cc2C)c(OC)c1 -9.92%
Cc1cc2c(cc1S(=O)(=O)CCC(=O)N1CCN(c3ccccc3)CC1)OCC(=O)N2 3.88%
CCCCCOC(=O)CSc1nc2sc3c(c2c(=O)n1Cc1ccccc1)CC(C)(CC)OC3 (stereo unspecified) 2.61%
CCS(=O)(=O)N1CC(=O)N(c2cc(Cl)ccc2C)C(C)(C(=O)NC2CCCCCC2)C1 (stereo unspecified) -8.41%
O=C(Nc1ccc2c(c1)CCCN2C(=O)c1cccs1)c1ccccc1C(F)(F)F -5.95%
COC(=O)c1ccc(NC(=O)c2c(-c3ccccc3)c(-c3ccccc3)nn(C)c2=O)cc1 -6.51%
CCOC(=O)Cc1ccc(NC(=O)Nc2nnc(N3CCCCC3C)s2)cc1 (stereo unspecified) -10.8%
CCc1ccc(Nc2nc(-c3cc4cccc(OC)c4oc3=O)c(CC)s2)cc1 -12.8%
CCOC(=O)c1ccc(NC(=O)Nc2cc3c(cc2N2CCCCC2)n(CC)c(=O)n3CC)cc1 -4.4%
CCC(=O)N1CCc2cc(Br)cc(S(=O)(=O)NCCc3ccc(C)cc3)c21 -4.77%
Cc1cccc(OC(=O)c2snnc2C)c1C -12%
CCCN(C(=O)c1cc2c(s1)-c1ccccc1OC2)c1ccc(C(C)C)cc1 0.0582%
CCOC(=O)C1CCN(C(=O)c2ccc(C)c(NC(=O)c3nsc4ccccc34)c2)CC1 -21.4%
CCC(=O)N1c2ccc(S(=O)(=O)CCC(=O)NCc3ccc(OC)cc3)cc2CC1C (stereo unspecified) -18.6%
